Laboratory results from the RNAGym collection of RNA variant scans (doi:10.1093/nar/gkz1192).
Read counts are not given, so values of variants with three or more changes are uncertain.

B1: CPEB3 Ribozyme (parent)
chain: UAACAGGGGGCCACAGCAGAAGCGUUCACGUCGCAGCCCCUGUCAGAUUCUGGUGAAUCUGCGAAUUCUGCUGUAUAUCUC

Variants of: B1
Assay: self-cleavage, relative activity (ratio to wild type); higher = more cleavage; in vitro, sequencing
In short: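 Relative activity was defined as the cleaved/total read fraction for a variant divided by the same fraction for the unmutated ribozyme. CPEB3 self-cleaving ribozyme libraries were made by rounds of error-prone PCR, barcoded, and transcribed in vitro with T7 RNA polymerase for 5 hours at 37°C, and cleavage ran through transcription plus a 15 min DNase I step before EDTA. Illumina sequencing of template-switched reverse transcripts gave the reads, and DNA sequencing mapped the barcodes. Averages come from three batches, using variants with at least 5 reads.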

Variant | self-cleavage
A20C U41C A57G | 0.17
A20G C23U G61C | 0.07
G19U A21G U41G A64G | 0.17
A20C A64G U78A | 0.22
G19U U25C U26C U41G A45G | 0.37
A20G A35C U51C U58C U74C | 0.11
G19C U26C A28U U49C | 0.19
A20C A21G A28G U41G | 0.09
G19U A56C U80C | 0.26
G19U U26C A45U | 0.18
G19A G36U U76A | 0.17
A20G A28U A45G U69C | 0.18
G19U A47G U48A U80C | 0.15
A20G A45C A47G | 0.27
A20G A45U A56U U72A | 0.15
A18U U67C U76C | 0.23
G19U A35G A64G U74A | 0.72
G19A U25A A57G | 0.16
G19U U66C C81U | 0.22
A20G A28G U60A C68A | 0.17
G19C A47G U54C A64G | 0.18
A20G A47G C62U G73A U80A | 0.22
A20G A21G A56U U69A U78C | 0.52
G19A U26A U51A A56G | 0.06

Variant | self-cleavage
A20G A64G A77U U80C | 0.51
A20G A21G U41C A45G U80A | 0.45
A20G A28U C37A G42A U69A | 0.07
G19U A64U A75U | 0.2
A20G A21G G36U U41A U60C | 0.19
A20G A21U A57G A64G U69A G73U | 0.04
A20G A21G U25C A64G U69C U72C | 0.1
A20G A28G U41A | 0.46
A20G A28G U41C | 0.38
A20G C23U G36C | 0.25
A20G A35C U58C A64U | 0.1
G19C A20C U25C A65C A77G | 0.09
A20C A47G U72A | 0.13
G19C A65U U74A | 0.13
A20G A45G A47U | 0.34
A20G A21G U31A U60C U74G | 0.05
A20G A21G G42A | 0.14
A20G A28U U67C U76C | 0.34
G19C U31C U54A A56U U58C A64G | 0.12
A20G A21G A75C | 0.11
A20G A35U A75G | 0.24
A20G A35G U51C A64G | 1.04
A20G A45C U54C | 0.17
G19C A35U U54C A56G U69A | 0.08

Variant | self-cleavage
A20G A21G U51C U54C | 0.37
G19A A45G G63C | 0.09
A20C U25C U26C | 0.42
A20C A47G U54A U58C | 0.14
A20C A57G G73A | 0.46
G19U U43A A75U | 0.18
G19U U31C U41A | 0.29
G19A A35G U54C A64G U76C | 0.58
A20G A28G U41G U43C | 0
A20G A28G U66C G70C U76C | 0.04
A20G A47U U67A | 0.13
A20G A47U U67G | 0.09
A20G A21G A45G U58C | 0
A18U U58C U67C | 0.34
G19C A47G A64G U72C U78C | 0.09
A20C C39A U41C U49C | 0.23
A20C U31A G33A A35G U41C A45G | 0.03
A20G A35G U60G C71G | 0.22
A20C A65G U69C | 0.41
A20G C23U U51C G52U | 0.27
A20G A56G U67A | 0.72
A20C C29U A45G | 0.05
A20G A28U G61C U80A | 0.23
A20G A21G U67C U69A | 0.19

Variant | self-cleavage
G19A A21G U25C U41A | 0.24
A20C C29G U72C A75G | 0.2
A20G A28G U49A U51C A65G U74A | 0
G19U A21G U26C U41A U60C | 0.05
G19U A35G U51C G73U | 0.36
A20G A21U U54C | 0.3
G19C A28G C38U A56G | 0.18
A20G A57G U72A | 0.36
A20C C29A A35U U41A | 0.07
A20G A47G U80C | 1.08
A18U U69C U72C A77G | 0.25
A20G A28U U48C U72A A77C | 0.09
A20G A28U C34U U54C U67A A75G | 0.05
A20G A65C U69C | 0.07
G19U U25A U41A | 0.27
A20G A45C U72A | 0.3
G19U A35G U51A | 0.52
G19C U43C G52U U69C U72C | 0.23
A20G A35U U49C A64G U72A U80C | 0.05
A20G A35G U69C A75U | 0.89
G19U U49G G61A U76A U78C | 0.09
A18U U54C U76C | 0.37
G19C A47G A64G | 0.1
G19A U67C A77U | 0.07

Variant | self-cleavage
A18U U60A U76A | 0.25
A20G A21U C32U U60C | 0.07
A20G A35G G52C U54C A57G A77G | 1.22
A20C C40A U48C A64G | 0.19
A20C C27A A45G | 0.14
G19C A28U U51A | 0.15
G19C U43C U51C | 0.22
A20G A56G G63A U67C | 0.5
G19C U48C A57G U72A A75U | 0.26
A20G A21U U48C U78C | 0.28
A20G A35G U49A A64G A75U | 0.94
A18U U60A U80C | 0.24
A20G A57G U67A | 0.43
G19U C40A A45G | 0.11
G19A A75U U78C | 0.04
A20G A45G U51A | 0.72
A20G A21G A64U | 0.37
A20G A28G U43C A56G | 0.33
A20G A28G U31C U49C | 0.04
A20G C23U U26C C29U U41C A64G | 0.04
A20G A21G C71A | 0.05
A18U U54G U60C U72C | 0.16
G19U U26C A35G A64U | 0.39
G19U U48C U51C U54C | 0.21

Variant | self-cleavage
A20G A28C U72C | 0.2
A20G A21G U43C | 0.36
G19U U26C C32A U48C | 0.17
G19A A21G U48C | 0.16
A20G A65G U69A U78C | 0.16
A20G A35U U51C G63A | 0.28
G19C A20U A65G | 0.18
A20G A21G U26C U43C | 0.09
G19A A35G A57G | 0.24
G19C A64U A65G U67C | 0.1
A20G A45G U78C | 0.48
A20G A28U C38U A57G U60C U67G U72A | 0.05
A20G A64U A65G | 0.11
A20G C23U U31C U48C G61C A64G A65G | 0.02
A20G A28G U72C U78A | 0.52
A20G A21G U41C U48C A57U U80C | 0.12
A20G A35C U49C A56U | 0.2
A20G A28G A45G U49C | 0.09
G19U A47G U48A U60C U80C | 0.24
A20G A21G A57G U58C U67A | 0.25
G19U A45U G46A C50U A64G U69C | 0.17
G19U A28U A65G | 0.15
A20G A35G U60A U72A | 0.48
A20G A35U U41C U49A U51C C59A G70A | 0.07

Variant | self-cleavage
A20G A47G U60G G63A U74C | 0.17
G19A A57G U60C | 0.23
G19A A20G U54C U60C U69A | 0.16
G19A A21G U26C | 0.22
G19U U41G U54G | 0.47
G19A U60A U80C | 0.15
A20G A28G A65G A77G | 0.1
G19U C34U U51C U72A | 0.05
G19C A28U A47U U74G | 0.25
G19A U66C U80A | 0.07
A20G A64U U72C | 0.43
A20C A21G A47G A64U | 0.15
A18U U60C A64U U66C | 0.4
G19C G52U A56G | 0.31
A20G A35U U51C | 0.32
A20G A21G U51C G53A U78C | 0.5
A20G A57C U67C | 0.44
A20G A21G A45U U54C A56G A64G | 0
A20G A21G U41A U51C U60G A65C | 0.2
A18U U51G U72A | 0.21
G19A G30A G52C | 0.15
A20G A35U U72A | 0.13
G19C U74A A77G | 0.43
